Measured values taken from PubChem BioAssay AID624418 (National Center for Advancing Translational Sciences (NCATS), 2012).
The whole screen tested about 410,000 compounds, of which about 530 (0.13%) were called active. The shares of active, inactive and inconclusive entries below differ from those in the screen. The call rests on the fitted dose curve; in most records, active means well fitted inhibition curve with a large enough effect; inconclusive means small, poorly fitted or top-dose-only effect, or another doubt; inactive means no such curve, though single readings can be large or run the other way. Potencies of inconclusive entries are doubtful fits and often do not repeat.
Potency means the concentration at half of the fitted maximal effect.

Experiment: qHTS of GLP-1 Receptor Inverse Agonists: Cytotox Screen
Details: HEK293 cAMP-luciferase reporter cells, luminescence, 24 h; series mostly up to 38.3 µM
How it was run: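 A 23 nL compound transfer followed 12 hours of cell culture at 37 deg C; exposure then lasted 24 hr. Luciferase assay detection reagent was dispensed and plates read for luminescence after a 12 min room-temperature wait.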
In the case of `Cc1ccc(NC(=O)CN2CCN(C3CCCCC3)C(=O)C2=O)cc1`, the Potency is reported as “inactive”. For `CCOC(=O)c1[nH]c(C)c(C(=O)Nc2cc(OC)ccc2OC)c1C`, the Potency was inconclusive: 0.891 µM [inhibitor, full curve]. In the case of `CNc1nc(N/N=C/c2ccc([N+](=O)[O-])cc2)nc(Nc2ccccc2)n1`, the Potency is reported as inconclusive: 28.2 µM [inhibitor, single point]. With `Cc1ccc(C(=O)O)cc1NCc1ccncc1` the Potency was “inactive”. In the case of `Cc1ccc(NC(=O)CN(C)C(=O)c2cccnc2Nc2cccc(C(F)(F)F)c2)cc1`, the Potency is reported as inconclusive: 28.2 µM [inhibitor, single point]. For `CCOC(=O)C1CCN(c2ccc([N+](=O)[O-])cc2)CC1`, the Potency was inconclusive: 10 µM [inhibitor, partial curve]. For `NC(=O)Cn1c(=O)n(CCCC(=O)NC2CCN(Cc3ccccc3)CC2)c(=O)c2ccccc21`, the Potency was “inactive”. In the case of `Cc1ccc(-c2noc(CSc3nnc(Cc4ccccc4)n3-c3ccc(Cl)cc3)n2)cc1`, the Potency is reported as inconclusive: 28.2 µM [inhibitor, partial curve, poor fit]. With `CCN1/C(=C/c2ccc3ccccc3[n+]2CCCS(=O)(=O)[O-])C=Cc2cc(C)ccc21` the Potency was inconclusive: 15.8 µM [inhibitor, partial curve, poor fit]. In the case of `COC(=O)N/N=C/c1cc([N+](=O)[O-])cc(Br)c1O`, the Potency is reported as inconclusive: 14.1 µM [inhibitor, single point]. In the case of `O=C(/C=C/c1ccc(F)cc1)NC(=S)N1CCOCC1`, the Potency is reported as inconclusive: 14.1 µM [inhibitor, single point]. In the case of `O=C(Nc1nc(-c2nc3ccccc3s2)cs1)C1COc2ccccc2O1` (stereo unspecified), the Potency is reported as inconclusive: 11.2 µM [inhibitor, single point]. For `CCc1ccc2oc(C(=O)Nc3nc(-c4ccccc4)ns3)c(C)c2c1`, the Potency was “inactive”. With `Cc1cc2oc(C(=O)Nc3ccc(S(=O)(=O)Nc4onc(C)c4C)cc3)cc(=O)c2cc1C` the Potency was “inactive”. With `O=C(c1ccccc1O)N1N=C(c2ccccc2)CC1(O)C(F)(F)F` (stereo unspecified) the Potency was inconclusive: 0.282 µM [inhibitor, full curve, poor fit]. In the case of `O=c1cc(C(Cl)(Cl)Cl)oc2c1ccc1ccccc12`, the Potency is reported as inconclusive: 2.24 µM [inhibitor, full curve]. In the case of `CCN(CCCNC(=O)c1cc2c(=O)[nH]c3ccc(C)cc3c2s1)Cc1ccccc1`, the Potency is reported as inconclusive: 28.2 µM [inhibitor, single point]. For `Cc1ccc(CSCC(=O)N/N=C/c2ccc(OCC(=O)Nc3ccc(C)cc3)cc2)cc1`, the Potency was inconclusive: 28.2 µM [inhibitor, single point]. With `CC(=O)Nc1nc(C)c(C(C)=O)s1` the Potency was “inactive”. In the case of `Cc1ccc(S(=O)(=O)N2CCN(C(=O)CCC(=O)Nc3ccc(Br)c(C)c3)CC2)cc1`, the Potency is reported as inconclusive: 6.31 µM [inhibitor, partial curve, poor fit]. In the case of `O=C(CCS(=O)(=O)c1ccccc1)N(CCCN1CCOCC1)c1nc2ccccc2s1`, the Potency is reported as inconclusive: 28.2 µM [inhibitor, single point]. For `Cc1cc(C)n(-c2nc(NCCCN(C)C)c3c4c(sc3n2)CCCC4)n1`, the Potency was inconclusive: 5.62 µM [inhibitor, full curve, poor fit]. For `O=C(NCc1ccc(F)c(F)c1)C1CCC(=O)N(CCc2ccccc2)C1` (stereo unspecified), the Potency was “inactive”. For `C/C(N)=C(/C#N)C(=O)CSc1nnc(-c2ccc(OC(F)F)cc2)o1`, the Potency was inconclusive: 1 µM [inhibitor, full curve, poor fit]. With `S=C(Nc1ccccc1Cl)N(Cc1ccccc1)Cc1ccccn1` the Potency was inconclusive: 28.2 µM [inhibitor, single point]. With `CC(c1ccccc1)N1C(=O)c2ccc(C(=O)Nc3ccc(Br)cc3C(=O)O)cc2C1=O` (stereo unspecified) the Potency was “inactive”. With `Cc1ccc(SCc2cn3cc(Cl)ccc3n2)cc1` the Potency was “inactive”. In the case of `CN(C)S(=O)(=O)c1ccc(Cl)c(C(=O)OCC(=O)NC(=O)NC2CCCC2)c1`, the Potency is reported as inconclusive: 0.891 µM [inhibitor, full curve, poor fit]. With `Cc1cc(C)c(OCC(=O)Nc2ccc(NC(=O)c3ccco3)cc2)c([N+](=O)[O-])c1` the Potency was “inactive”. With `COc1ccc(/C=N\Nc2ccccc2[N+](=O)[O-])c(C(=O)O)c1OC` the Potency was inconclusive: 11.2 µM [inhibitor, single point]. In the case of `O=C(C1CCN(S(=O)(=O)c2ccccc2)CC1)N(CCc1ccccc1)Cc1ccco1`, the Potency is reported as inconclusive: 11.2 µM [inhibitor, single point]. In the case of `CS(=O)(=O)N1CCN(c2ccc(NC(=O)c3ccc([N+](=O)[O-])o3)cc2)CC1`, the Potency is reported as inconclusive: 12.6 µM [inhibitor, partial curve]. For `COc1ccc(OC)c(C2C(C(=O)c3cc4ccccc4o3)=C(O)C(=O)N2c2cc(C)on2)c1` (stereo unspecified), the Potency was inconclusive: 20 µM [inhibitor, single point]. With `N#CC1(NC(=O)Cn2ncc(Cl)c(Cl)c2=O)CCCCC1` the Potency was inconclusive: 31.6 µM [inhibitor, single point]. In the case of `Cc1ccc2c(c1)c(=O)c(C(=O)c1ccncc1)cn2CC(=O)Nc1ccc(C(C)C)cc1`, the Potency is reported as “inactive”. With `O=C(COc1ccccc1)NNc1c2ccccc2nc2ccccc12` the Potency was inconclusive: 28.2 µM [inhibitor, single point]. With `CCOC(=O)C1=NNC2(CC(=O)N(c3cc(C)cc(C)c3)C2=O)C1` (stereo unspecified) the Potency was “inactive”. With `COc1ccc(CN2C[C@@H](CO)O[C@@H](n3cnc4c(NCc5ccc(F)cc5)ncnc43)C2)cc1` the Potency was “inactive”. For `Cc1ccc(S(=O)(=O)NNC(=S)Nc2cccc(C)c2C)cc1`, the Potency was inconclusive: 28.2 µM [inhibitor, single point]. In the case of `CC(Cl)C(=O)NC(=O)NC12CC3CC(CC(C3)C1)C2` (stereo unspecified), the Potency is reported as “inactive”. In the case of `COc1ccc(N2CCN(CC(O)COc3ccc(C(C)C)c(C)c3)CC2)cc1` (stereo unspecified), the Potency is reported as inconclusive: 4.47 µM [inhibitor, partial curve, poor fit]. With `COc1ccc(S(=O)(=O)N/N=C\c2ccc(OC)c(COc3ccc(C)cc3[N+](=O)[O-])c2)cc1` the Potency was inconclusive: 22.4 µM [inhibitor, single point]. For `COc1ccc(OC)c(C(=O)/C=C/c2cccnc2)c1`, the Potency was inconclusive: 10 µM [inhibitor, partial curve, poor fit]. In the case of `O=c1c2c([N+](=O)[O-])cc([N+](=O)[O-])cc2sn1Cc1ccccc1`, the Potency is reported as “inactive”. With `Clc1ccc(C2=CSC3=NCCN23)cc1Cl` the Potency was inconclusive: 28.2 µM [inhibitor, single point]. In the case of `CCCCN(CC)CCCNC(=O)C1CCN(c2nc3ccc(CC)cc3s2)CC1`, the Potency is reported as inconclusive: 14.1 µM [inhibitor, single point]. In the case of `CCOc1ccc(/C=N/n2c(-c3ccccc3)n[nH]c2=S)cc1`, the Potency is reported as “inactive”. In the case of `Cc1ccc(S(=O)(=O)NCC(c2ccco2)N2CCN(c3ccccc3F)CC2)cc1` (stereo unspecified), the Potency is reported as “inactive”. With `Cc1cccc(NC(=O)c2oc3ccc(S(=O)(=O)N4CCOCC4)cc3c2C)c1C` the Potency was inconclusive: 28.2 µM [inhibitor, single point]. In the case of `O=C(CN1C(=O)/C(=C/c2ccccc2F)Sc2ccccc21)NCc1cccnc1`, the Potency is reported as inconclusive: 2 µM [inhibitor, partial curve, poor fit]. For `CC(C)(C)[C@H]1COC(=O)[C@H](Cc2ccc(F)cc2)CC/C=C/C[C@@H](CC(=O)N[C@H](CO)Cc2ccccc2)C(=O)N1`, the Potency was inconclusive: 1.58 µM [inhibitor, full curve, poor fit]. With `CCOC(=O)c1c(NC(=O)CSc2nnnn2-c2ccccc2OCC)sc2c1CC(C)(C)NC2(C)C` the Potency was inconclusive: 20 µM [inhibitor, single point]. With `COc1ccc(C(=O)CCN2CCN(c3ccccc3F)CC2)cc1` the Potency was inconclusive: 28.2 µM [inhibitor, single point]. In the case of `CCOC(=O)C1=C(O)/C(=C/c2cccc(OC)c2O)N=C1C`, the Potency is reported as inconclusive: 25.1 µM [inhibitor, single point]. In the case of `CCOC(=O)C1(CCOc2ccccc2)CCN(Cc2cccc(OC)c2O)CC1`, the Potency is reported as “inactive”. With `COc1cc(Cl)c(C)cc1Nc1c2c(nc3ccccc13)CCC2` the Potency was inconclusive: 8.91 µM [inhibitor, partial curve, poor fit]. In the case of `O=C(CN(C(=O)CCC(=O)Nc1ccccn1)c1ccc(F)cc1)NCc1ccc(F)cc1`, the Potency is reported as “inactive”. For `COc1ccccc1-n1ncc2c(=O)[nH]c(SCC(=O)Nc3cccc(F)c3)nc21`, the Potency was “inactive”. With `COCOCCn1cc(CN2CCS(=O)(=O)N(Cc3ccc(-c4ccc(C)cc4)cc3)C(C)C2=O)nn1` (stereo unspecified) the Potency was “inactive”. For `Cc1cc(C)n(/N=C/c2cc([N+](=O)[O-])ccc2O)c(=O)c1`, the Potency was inconclusive: 20 µM [inhibitor, single point]. For `C=CCN(c1ccccc1)S(=O)(=O)c1cccc(C(=O)NC2CCN(Cc3ccccc3)CC2)c1`, the Potency was inconclusive: 10 µM [inhibitor, partial curve]. For `CCOC(=O)[C@H]1[C@H]2COc3ccc(Br)cc3[C@@H]2N2C(=O)c3cc(Br)ccc3NC(=O)[C@@]12C`, the Potency was “inactive”. In the case of `Oc1c(CN2CCN(c3ccccc3)CC2)cc(Br)c2cccnc12`, the Potency is reported as inconclusive: 1.78 µM [inhibitor, full curve, poor fit]. With `CCOC(=O)C1=C(C)NC(=S)NC1/C=C/c1ccccc1` (stereo unspecified) the Potency was inconclusive: 28.2 µM [inhibitor, single point]. With `CCCN(CCC)Cc1c(C(=O)N/N=C/c2ccoc2)nnn1-c1nonc1N` the Potency was inconclusive: 28.2 µM [inhibitor, single point]. For `COc1ccc(-c2csc(NC(=O)CCCc3nc4ccccc4c(=O)[nH]3)n2)cc1OC`, the Potency was inconclusive: 28.2 µM [inhibitor, single point].
